Here are results for four substances from publication PMC5501830.

By UniProt entry, the sequences of proteins in these tests, tags left out. Where a name states a change or a piece, a line headed by the entry shows the natural chain unless it says otherwise.
UniProt Q9BXW9: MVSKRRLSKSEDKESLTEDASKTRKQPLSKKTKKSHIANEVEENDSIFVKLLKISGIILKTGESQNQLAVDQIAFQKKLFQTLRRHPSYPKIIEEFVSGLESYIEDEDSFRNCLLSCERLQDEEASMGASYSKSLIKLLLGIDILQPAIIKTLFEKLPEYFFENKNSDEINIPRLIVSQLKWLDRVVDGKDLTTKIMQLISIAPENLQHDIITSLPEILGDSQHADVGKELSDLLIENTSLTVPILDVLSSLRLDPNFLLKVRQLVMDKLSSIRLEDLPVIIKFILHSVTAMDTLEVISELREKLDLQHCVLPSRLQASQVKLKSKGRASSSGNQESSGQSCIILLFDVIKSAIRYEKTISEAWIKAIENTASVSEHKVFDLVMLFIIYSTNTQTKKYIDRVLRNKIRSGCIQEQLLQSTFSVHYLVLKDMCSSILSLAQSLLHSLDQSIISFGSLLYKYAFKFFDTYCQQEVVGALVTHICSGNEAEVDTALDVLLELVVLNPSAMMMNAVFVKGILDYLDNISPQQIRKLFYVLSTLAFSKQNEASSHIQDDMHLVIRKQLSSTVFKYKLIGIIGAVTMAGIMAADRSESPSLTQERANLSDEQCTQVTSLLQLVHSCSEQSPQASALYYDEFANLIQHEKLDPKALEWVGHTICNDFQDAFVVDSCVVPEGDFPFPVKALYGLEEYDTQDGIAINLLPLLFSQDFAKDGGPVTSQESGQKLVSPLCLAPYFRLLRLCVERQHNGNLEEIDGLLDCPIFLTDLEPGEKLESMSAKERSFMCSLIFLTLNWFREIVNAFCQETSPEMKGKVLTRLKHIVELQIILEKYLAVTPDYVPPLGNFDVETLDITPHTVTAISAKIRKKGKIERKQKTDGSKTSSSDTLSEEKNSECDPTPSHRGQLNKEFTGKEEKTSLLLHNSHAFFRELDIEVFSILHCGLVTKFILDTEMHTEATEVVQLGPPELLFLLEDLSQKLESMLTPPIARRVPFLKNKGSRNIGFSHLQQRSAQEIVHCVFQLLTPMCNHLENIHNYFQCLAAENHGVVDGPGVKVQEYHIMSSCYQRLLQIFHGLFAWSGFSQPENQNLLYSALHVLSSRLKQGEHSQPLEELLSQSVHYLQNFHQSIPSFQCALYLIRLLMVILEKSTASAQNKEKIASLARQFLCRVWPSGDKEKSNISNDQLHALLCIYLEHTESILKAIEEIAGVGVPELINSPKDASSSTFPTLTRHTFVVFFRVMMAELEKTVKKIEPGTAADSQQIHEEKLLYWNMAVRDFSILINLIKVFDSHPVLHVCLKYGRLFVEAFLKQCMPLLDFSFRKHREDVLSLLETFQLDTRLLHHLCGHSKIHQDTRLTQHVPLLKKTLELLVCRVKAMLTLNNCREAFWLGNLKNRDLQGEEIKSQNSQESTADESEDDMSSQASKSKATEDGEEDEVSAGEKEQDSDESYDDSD
UniProt P25705: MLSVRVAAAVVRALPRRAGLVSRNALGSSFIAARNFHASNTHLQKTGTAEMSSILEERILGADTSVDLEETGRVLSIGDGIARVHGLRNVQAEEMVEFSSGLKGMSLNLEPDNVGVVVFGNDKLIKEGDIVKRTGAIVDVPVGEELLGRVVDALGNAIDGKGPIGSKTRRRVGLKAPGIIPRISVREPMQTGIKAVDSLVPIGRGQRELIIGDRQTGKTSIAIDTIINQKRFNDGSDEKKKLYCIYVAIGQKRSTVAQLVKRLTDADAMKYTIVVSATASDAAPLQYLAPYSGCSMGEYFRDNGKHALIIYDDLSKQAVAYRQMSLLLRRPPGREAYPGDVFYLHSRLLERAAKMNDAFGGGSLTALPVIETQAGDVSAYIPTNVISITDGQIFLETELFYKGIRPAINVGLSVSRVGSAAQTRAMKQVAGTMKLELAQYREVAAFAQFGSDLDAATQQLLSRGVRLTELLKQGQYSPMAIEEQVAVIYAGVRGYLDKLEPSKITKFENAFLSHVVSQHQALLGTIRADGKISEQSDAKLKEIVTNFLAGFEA

These are yes or no findings as the source states them, for the method shown. Binding seen in cells or lysates may run through a third protein. Some results given as binding are weak or reduced against the parent protein; the word gives no strength.

Common to all, as to assay: co-IP; 293T cells co-transfected with GFP-ATP5α (or its deletion constructs) and Flag-FANCD2; lysate 48 hr after transfection; reverse IP with anti-Flag and anti-GFP antibodies, protein A-sepharose, Western blot
Background: A western blot detects proteins with antibodies after separation by electrophoresis.

In one assay the target is Flag-wtFANCD2 (UniProt Q9BXW9).
Assay [1] addresses GFP-mtATP5α (Δ11-135aa) (human) (UniProt P25705).
The target of assay [2] is GFP-mtATP5α (Δ42-72aa) (human) (UniProt P25705).
In a further assay the target is GFP-ATP5α (human) (UniProt P25705).

As to GFP-ATP5α (from UniProt P25705 44-553), the binding entry in the assay with Flag-wtFANCD2 is recorded as “binds”. As to “Flag-wtFANCD2 (from UniProt Q9BXW9 1-1451)”, the values for the binding entry (in assay [1]; in assay [2]; with GFP-ATP5α (human)) were “no binding”, “no binding” and “binds”, respectively.

Consider “GFP-mtATP5α (Δ11-135aa) (from UniProt P25705 44-553)”, for which the binding result with Flag-wtFANCD2 was “no binding”. For “GFP-mtATP5α (Δ42-72aa) (from UniProt P25705 44-553)”, the binding entry with Flag-wtFANCD2 was “no binding”.
